Data: PubChem BioAssay AID1347417 (National Center for Advancing Translational Sciences (NCATS), 2020)
The whole screen tested about 120,000 compounds, of which about 5,300 (4.4%) were called active. The inconclusive results got no clear call from the source; some entries with a clear call stand among them for comparison. Calls come from the whole dose curve; as a rule, active = well fitted inhibition curve with a large enough effect; inconclusive = small, poorly fitted or top-dose-only effect; inactive = no such curve, though single readings can be large or run the other way. Potencies beside an inconclusive call are fits to weak or partial responses and may not hold up.

Assay: qHTS Primary assay for Inhibitors of Plasmodium falciparum Dd2 growth in vitro; note: nearly all actives have a fitted effect of over 65% in size;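 for activity, negative = inhibition: plate controls were DMSO vehicle for no effect and reference drug for full effect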
Details: P. falciparum Dd2 growth, SYBR Green, 72 h; activity, negative = inhibition: at 28.9 µM (top of the series) unless noted; series mostly up to 28.9 µM
How it was run: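 Readout: SYBR Green fluorescence, 485 nm excitation, 535 nm emission, after ~16 h lysis at 37C. Before that, Dd2-infected red cells (2.5% hematocrit) grew 72 h with compound, 29 uM top final concentration.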
Potency is the fitted concentration of half-maximal effect; tags give direction and shape of the fitted curve.

Structure (SMILES) | Potency | activity, negative = inhibition | outcome
O=C(CSc1oc(-c2ccccc2)nc1S(=O)(=O)c1ccccc1)c1ccccc1 | inconclusive: 17.8 µM [inhibitor, single point] |  | 
CCCCS(=O)(=O)N1CCN(C2CCN(CCOC)C2=O)CC1 (stereo not given) |  | inactive: -11.2% | 
COc1ccc(C(=O)N2CCCC(c3nc(-c4cccnc4)no3)CCNC(=O)CC2)cc1 (stereo not given) |  | inactive: -26.9% | 
CC(C)Cn1cc(NC(=O)NCc2ccccc2Cl)c2ccccc2c1=O | inconclusive: 17.8 µM [inhibitor, single point] |  | 
NC(=O)NCCC(=O)N1CCc2onc(C(c3ccccc3)c3ccccc3)c2C1 | inconclusive: 10 µM [inhibitor, single point] |  | 
O=C1CO[C@H]2CCN(Cc3cccnc3)CC[C@@H]2N1Cc1ccccc1 | inconclusive: 22.4 µM [inhibitor, single point] |  | 
COC(=O)[C@@H]1Cc2c([nH]c3ccccc23)[C@H]2C[C@@H](N3CCOCC3)C[C@@H](c3ccccc3)N21 | inconclusive: 2.51 µM [inhibitor, full curve, poor fit] |  | 
CN(Cc1cccnc1)Cc1nc(C2(O)CCN(Cc3ccccc3)CC2)cs1 | inconclusive: 14.1 µM [inhibitor, single point] |  | 
CC1=Nc2cc(C(=O)NC(C)C)ccc2Sc2ccc(C)cc21 | active: 11.2 µM |  | 
Fc1ccc(Br)cc1C1C=C(c2ccc(Br)cc2)Nc2nnnn21 (stereo not given) | inconclusive: 17.8 µM [inhibitor, single point] |  | 
CCC(=O)N1Cc2ccccc2CC2(CCN(Cc3ccccc3)C2)C1 (stereo not given) | inconclusive: 10 µM [inhibitor, partial curve] |  | 
COc1ccccc1CNC(=O)[C@H]1CN2CCC1C[C@@H]2Cn1cc(CN(C)C)nn1 (stereo not given in full) |  | inactive: -13.1% [at 44.1 µM] | 
CCOCCN1C(=O)COC[C@@H]1[C@H](O)c1ccc(NC(=O)COc2ccccc2)cc1 |  | inactive: -25.5% [at 44.1 µM] | 
c1ccc(Nc2cc3c(cn2)CN(Cc2ccsc2)CCN3)cc1 | inconclusive: 0.398 µM [inhibitor, full curve, poor fit] |  | 
Cn1nc2n(c1=O)CCN(C1CCSCC1)CC2 |  | inactive: 20.4% | 
O=C(O)c1ccc(C2CCCN(C(=O)c3cccc4cccnc34)C2)cc1 (stereo not given) |  | inactive: 4.16% | 
Cc1ccc(-c2noc([C@@H]3Cc4nc[nH]c4CN3Cc3cccc(C#N)c3)n2)cc1 | inconclusive: 2.24 µM [inhibitor, partial curve, poor fit] |  | 
CCN(CC)CCNC(=O)c1ccc(-n2c(-c3ccccc3)cc3c2CCCC3)cc1 | active: 7.94 µM |  | 
CCc1ccc(CN(C(=O)c2cc(=O)c3ccc(C)cc3o2)C2CCS(=O)(=O)C2)cc1 (stereo not given) | inconclusive: 12.6 µM [inhibitor, partial curve, poor fit] |  | 
CCOC(=O)C1(Cc2ccccc2F)CCCN(C(=O)CCc2c[nH]c3ccccc23)C1 (stereo not given) | inconclusive: 17.8 µM [inhibitor, single point] |  | 
CN1CCN(C(=O)c2ccc3c(c2)NC(C)(CCCCc2ccccc2)CO3)CC1=O (stereo not given) | inconclusive: 2.82 µM [inhibitor, partial curve, poor fit] |  | 
Cc1ccc2sc(N(Cc3cccnc3)C(=O)C3COc4ccccc4O3)nc2c1C (stereo not given) | inconclusive: 17.8 µM [inhibitor, single point] |  | 

Structure (SMILES) | Potency | activity, negative = inhibition | outcome
COc1ccc(Nc2oc(/C=C/c3ccc(OC)c(OC)c3)nc2C#N)cc1 | inconclusive: 7.94 µM [inhibitor, partial curve] |  | 
Cc1ccc(CN2CCCn3nc(C(=O)NCC(C)c4ccccc4)cc3C2=O)cc1 (stereo not given) | inconclusive: 5.01 µM [inhibitor, partial curve, poor fit] |  | 
COCCNC[C@@H]1C=C(C)[C@H](Cc2nnc(-c3ccc(N(C)C)cc3)o2)C[C@H]1C(C)C | active: 3.55 µM |  | 
CCOc1ccc(S(=O)(=O)Nc2cc(Cl)ccc2OC)c2cccnc12 | inconclusive: 10 µM [inhibitor, single point] |  | 
Cc1ccc(/C=C/c2onc(C)c2S(=O)(=O)N2CCC(C(=O)Nc3cc(F)ccc3F)CC2)cc1 |  | inactive: -0.521% | 
O=C(c1ccccc1OCc1ccccc1)N1CCNCC(O)C1 (stereo not given) | inconclusive: 17.8 µM [inhibitor, single point] |  | 
c1ccc2sc(C3CCCN(Cc4cc5n(n4)CCNC5)C3)nc2c1 (stereo not given) | inconclusive: 4.47 µM [inhibitor, partial curve, poor fit] |  | 
Cc1nccn1-c1ccc(CNC(=O)c2cn(-c3ccccc3)nn2)cc1 |  |  | inactive
CCOCc1nc(C2CCCN(C(=O)Nc3cccc(F)c3C)C2)no1 (stereo not given) |  | inactive: 3.81% | 
CCCCOC(=O)c1ccc(Nc2nnc(-n3nc(C)cc3C)c3ccccc23)cc1 |  | inactive: -10.1% | 
Cc1ccc(-c2cn(-c3ccc(Cl)cc3)c(S(=O)(=O)CC(=O)Nc3ccccc3)n2)cc1 | inconclusive: 17.8 µM [inhibitor, single point] |  | 
C[C@]1(CO)[C@H]2Cc3sc(NC(=O)C4CCCCC4)nc3[C@@H](CC(=O)N3CCOCC3)[C@]2(C)CC[C@H]1O | inconclusive: 8.91 µM [inhibitor, partial curve] |  | 
CCC(CC)c1cc([C@H]2CN3CC[C@H]2C[C@@H]3CNC(=O)CCCC(=O)O)nc(-c2ccncc2)n1 | inconclusive: 7.94 µM [inhibitor, partial curve, poor fit] |  | 
O=C1COCC2(CN1Cc1c(F)cccc1Cl)CN(c1ccccc1)C2 | inconclusive: 31.6 µM [inhibitor, single point] |  | 
Cc1cccc(C)c1Nc1c(-c2ccc(O)cc2)nc2sccn12 | inconclusive: 7.94 µM [inhibitor, single point] |  | 
Cn1ncc(CN2CCc3[nH]cnc3C2c2cccc(C#N)c2)c1C1CC1 (stereo not given) | inconclusive: 8.91 µM [inhibitor, partial curve, poor fit] |  | 
CCOc1ccc(S(=O)(=O)NCCc2sc3nc(-c4ccc(C)cc4)nn3c2C)cc1 | inconclusive: 17.8 µM [inhibitor, single point] |  | 
COc1ccc(CN(C)Cc2ccc(F)cc2)cc1 | inconclusive: 7.08 µM [inhibitor, partial curve, poor fit] |  | 
COc1ccccc1CNC(=O)CN1C(=O)CCn2nc(-c3ccccc3)cc21 | inconclusive: 12.6 µM [inhibitor, single point] |  | 
Cc1ccc(OCC(=O)Nc2ccc3nc(Nc4cccc(Cl)c4)cc(C)c3c2)cc1 |  | inactive: 35.8% | 
O=C1NC2(CN(Cc3ccccc3)C2)Oc2ccccc21 | inconclusive: 4.47 µM [inhibitor, single point] |  | 
C#CCNC(=O)c1nc(-c2ccc([S+](C)(=O)[O-])cc2)c2ccccn12 |  | inconclusive: -54.3% [inhibitor] | 

Structure (SMILES) | Potency | activity, negative = inhibition | outcome
Cc1ccc(Cl)cc1N1CCN(C(=O)CN2CC3CC(C2)[C@H]2CCCC(=O)N2C3)CC1 (stereo not given in full) | inconclusive: 14.1 µM [inhibitor, partial curve, poor fit] |  | 
Cc1c(-c2ccc(Cl)cc2)c(=O)oc2c(CN3CCCC3)c(O)ccc12 | inconclusive: 1 µM [inhibitor, partial curve, poor fit] |  | 
N#Cc1cc2c(nc1SCC(=O)Nc1cccc(F)c1)C1CCN2CC1 | inconclusive: 11.2 µM [inhibitor, single point] |  | 
COc1ccc(CCC(=O)N2CCN(c3nnc4ccc(Cl)cn34)CC2)cc1 | inconclusive: 8.91 µM [inhibitor, partial curve] |  | 
CCN(c1ccccc1)S(=O)(=O)c1ccc2[nH]cc(C(=O)NCc3ccc(C)cc3)c(=O)c2c1 | inconclusive: 15.8 µM [inhibitor, single point] |  | 
Cc1ccc(NC(=O)C2CCN(c3cc(C(F)(F)F)ncn3)CC2)cc1Cl | inconclusive: 3.98 µM [inhibitor, partial curve, poor fit] |  | 
Clc1ccc(CNc2cc(-c3ccccc3)nc3nncn23)cc1 | inconclusive: 17.8 µM [inhibitor, single point] |  | 
CCOc1ccc(CCNC(=O)C2CCC(CNS(=O)(=O)c3ccc(Cl)cc3)CC2)cc1OCC (stereo not given) | inconclusive: 17.8 µM [inhibitor, single point] |  | 
N#Cc1cccc(OCc2nnc(C(=O)N3CCC[C@@H]3c3nc4ccccc4[nH]3)n2-c2ccccc2)c1 | inconclusive: 20 µM [inhibitor, partial curve, poor fit] |  | 
COc1cc(F)cc(-c2cnc3[nH]cc(CC(=O)NCc4cccnc4)c3c2)c1 |  |  | inactive [at 44.1 µM]
CC(C)CNC(=O)N1CCc2nc(OCC3CC3)ccc2C1 | inconclusive: 10 µM [inhibitor, partial curve, poor fit] |  | 
Cc1cccc(OCC2(CNC3CCC3)C[C@@H](O)[C@@H](O)C2)n1 (stereo not given in full) |  |  | inactive [at 44.1 µM]
COc1ccc2c(c1)C1(CCN(C(=O)COc3ccc(Cl)cc3)C1)C(=O)N2C (stereo not given) | active: 7.08 µM |  | 
NC(=O)c1n[nH]c2c1CN(CC1(O)CNCCOC1)CC2 (stereo not given) |  | inactive: -14.6% | 
CCCn1cc(C2CCN(S(=O)(=O)c3ccccc3Cl)CC2)c2ccccc21 |  | inactive: -1.35% | 
O=C(CN1C(=O)NC(c2ccc(Cl)cc2)C2=C1COC2=O)Nc1cc(F)ccc1F (stereo not given) | inconclusive: 7.94 µM [inhibitor, single point] |  | 
COc1ccc(C(NC(=O)c2cccc(-n3cnnc3)n2)C2CC(O)C2)cn1 (stereo not given) |  | inactive: -12.2% | 
COc1ccc2[nH]c(C(=O)N3C[C@@H](CO)[C@H](c4ccncc4)C3)cc2c1 | inconclusive: 8.91 µM [inhibitor, partial curve] |  | 
COc1ccc(CNC(=O)C(=O)NCC(c2ccco2)S(=O)(=O)c2ccc(C)cc2)cc1 (stereo not given) |  |  | inactive
COCCCNC(=O)c1nc2nc(-c3ccccc3)c(Cl)cc2n1C |  | inactive: -27.4% [at 44.1 µM] | 
COc1cc2nc(Nc3ccc(F)cc3)nc(N)c2cc1OC | active: 2.51 µM |  | 
